In the supplement of paper PMC3334620:
The full ranking holds about 33,000 sequences; the median of “E-score (-0.5 to 0.5)” is about -0.036, and the highest 2% start at about 0.37. Some of the results follow.

Biological target: T1, Yer064c (UniProt P40041)
T1 sequence: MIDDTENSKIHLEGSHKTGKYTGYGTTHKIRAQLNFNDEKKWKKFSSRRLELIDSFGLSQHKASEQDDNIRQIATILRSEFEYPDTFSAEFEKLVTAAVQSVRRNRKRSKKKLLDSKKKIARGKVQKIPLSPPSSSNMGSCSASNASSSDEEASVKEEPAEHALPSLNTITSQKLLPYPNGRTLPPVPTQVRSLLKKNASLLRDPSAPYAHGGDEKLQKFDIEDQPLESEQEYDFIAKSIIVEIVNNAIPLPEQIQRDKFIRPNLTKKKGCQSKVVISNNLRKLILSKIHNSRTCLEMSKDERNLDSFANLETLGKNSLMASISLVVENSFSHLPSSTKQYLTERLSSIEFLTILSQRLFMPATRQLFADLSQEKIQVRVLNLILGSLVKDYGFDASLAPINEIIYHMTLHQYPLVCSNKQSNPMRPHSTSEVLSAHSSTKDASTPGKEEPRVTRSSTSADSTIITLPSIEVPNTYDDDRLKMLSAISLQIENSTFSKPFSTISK
Assay: PBM E-score (8-mer binding enrichment) (E-score (-0.5 to 0.5)); higher = stronger / more preferred TF binding; most listed sequences are background and not binding sites
Conditions: protein concentration: 200 nM; construct: GST-full length
How it was run: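 Bound GST-tagged yeast transcription factors, applied at about 100-200 nM to double-stranded universal all-10-mer Agilent arrays, were detected with fluorescent anti-GST. Scans were normalised with masliner. A modified Wilcoxon-Mann-Whitney statistic, the E-score, was assigned to each ungapped eight-base word pooled with its reverse complement by the Universal PBM Analysis Suite.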

Sequence | PBM E-score
AAAATAGA | 0.0233
ATTCAGTC | 0.341
CGATCCCC | -0.197
AGCGGCCA | -0.259
GATGCTAC | -0.135
CCCGTGCC | -0.103
GAGACTCC | 0.367
CAAAAGTG | -0.0977
CGCTGTCC | -0.243
AGGAGAGA | 0.0683
GTCAAGTA | 0.08
CGAAAGTC | 0.23
GTCCACTA | -0.0875
AGTAAAAG | 0.0408
AAAGAGTG | -0.0396
CACTGCGC | -0.151
AACCCAGG | -0.219
ATTGCGAA | 0.00471
AGTCGGTA | -0.0166
ACTCTACC | 0.115
ATCATGCC | 0.232
TGGAAGAA | -0.0375
GGTGGTAA | 0.0401
ATAATTAG | 0.0798
TCCCATCA | -0.07

Sequence | PBM E-score
AAAGCGTC | -0.224
ACCATGTG | 0.116
GTACAAAC | 0.025
GCGTGGAA | -0.238
TATGGTAA | 0.0478
GGCATGTA | -0.145
CATCCACC | -0.0348
GTAAGAAA | -0.0634
CCAGACCG | -0.301
AGCATTGG | 0.0859
AGCCTCGC | -0.342
AACGAGTC | 0.42
ATTAGTGA | 0.219
CATAACCA | 0.071
AGCCCGGC | -0.226
AAAGTACT | 0.101
CCCACAGC | -0.138
GCGGAATA | -0.216
GCATGAAC | 0.0609
CGGCGTTC | -0.284
CCTAGTAG | 0.00521
ATTGATAA | 0.0604
CCCGACGA | -0.143
CCTGGTAA | -0.137
ACCATCGT | 0.0188

Sequence | PBM E-score
CAGATGGG | -0.0325
GTCCCGGA | 0.0484
CAAGACGG | -0.147
ACCGAATA | -0.0568
AGCACAAA | 0.15
GAGTTTTA | 0.101
CACCATGC | -0.198
CCCCTTAA | -0.245
TCTCGGCA | -0.152
ACACATAA | 0.15
GCACGCAC | -0.161
AACGGGAG | 0.0677
TCACGCGA | 0.0699
TAGACGGA | 0.12
AAGCTGCT | 0.0595
GAGCTTTA | -0.0198
GCGGGACC | -0.276
ACCTCACT | 0.0302
CCTCGAGA | 0.0673
ACACGTAG | -0.014
GTGGCTTA | -0.213
CGGTAGGC | -0.178
CGCAGTCC | 0.134
GAGGCTTA | -0.197
CTTCCAAC | -0.235

Sequence | PBM E-score
CGTAGCAA | -0.0716
AGTGTACA | -0.133
AGGGGAGA | -0.0295
TTTTAAAA | 0.152
CCCCCCTC | -0.416
TATAGTAA | 0.0693
TAGTACGA | 0.0633
AAGCGCAT | -0.114
CGAGTCGC | 0.383
GACAACAC | -0.161
ACCAATTA | -0.0587
ACACTACA | 0.0888
TCCCGCAA | -0.16
CGTGACGA | 0.0595
GATCACGC | 0.18
ACGGAGGC | -0.34
GGAGTTGA | 0.0454
CCAGTAGG | -0.246
CTCCTAGC | -0.122
ACGAATAG | -0.0529
TATTACCA | 0.0455
ACTCTCCG | 0.193
ACCCACTG | -0.0391
CAGTACCC | -0.0153
GGCGTTCA | -0.296

Sequence | PBM E-score
ACCTAAAA | -0.0104
CGCATACA | -0.0361
TATACAGA | 0.0513
GCGGTAGA | -0.06
ACTCTTAT | 0.241
CATCGCAC | -0.211
CGCGTCTC | -0.0783
TCAGGACA | 0.172
GACCGTTA | -0.0525
TGCTCACA | -0.157
AGTGTTTC | -0.0769
AGTTGAAC | -0.0262
ATACTCGG | -0.0364
AAGAATAC | -0.059
ACGAGGCG | -0.156
GACAATTA | 0.116
CGGAGTAG | -0.0167
CCGAGGAG | -0.135
AGATAGCT | -0.158
ACGAACAA | 0.0997
AATTAGGG | -0.145
ACTGTGTC | 0.184
CGGGGACG | 0.0815
GAAGAATA | 0.0388
CACGCACA | -0.0101

Sequence | PBM E-score
GCCACACA | -0.0274
AGTGTAAC | -0.0983
ACAATCAC | 0.351
AGGGAGCC | -0.304
CAATGGTA | -0.0289
CTGGCTAA | 0.23
GCAGGCGC | -0.191
GCGCACGC | -0.252
ATTCGAAC | 0.082
GACTCTGA | 0.392
GTCGGGGA | -0.0863
ACTTACGC | 0.0287
CGCCCCCG | -0.243
TGGATGAA | -0.0193
AAGGCCCC | -0.37
ACCAACCG | -0.0719
GCGAGGCC | -0.223
GACCAGAA | -0.121
GGGCCTTA | -0.297
ACGAATAA | 0.0659
GCCGGGCC | -0.227
AGCCCCCA | -0.337
TCCTTGCA | -0.219
AGGTCTCG | -0.024
GTTTCGAA | 0.00031

Sequence | PBM E-score
GCAGAACA | -0.227
GTACGAAC | 0.127
AAATGATT | 0.437
AGATATCC | 0.192
ATGTCAGA | -0.0808
AGCGAACA | -0.0556
ACGATCGC | -0.0227
TCCGTGAA | -0.0302
CTACTGGA | -0.00141
ACCCCCTA | -0.029
GTAAAGGA | 0.0918
CACTTGAG | 0.242
AGGGACAA | -0.21
TAAGAGCA | -0.071
ATGAGTGG | 0.193
CCAAGGCC | -0.213
GCTTAGAC | -0.0998
GCGAATCA | 0.414
CCCCTGGA | -0.176
ACGCGCAT | -0.0858
CAATAAAG | 0.146
CACGAACA | 0.163
